The record followed here is article PMC4336329 (PLoS ONE, 2015).

The campaign covered roughly 310,000 compounds. About 2,200 (0.71%) showed an effect of 50% or more. Effects have a minus sign here. The list shows a part of the results.

Sequence of human ether-à-go-go-related gene (hERG) potassium channel (Q12809 whole entry, looked up): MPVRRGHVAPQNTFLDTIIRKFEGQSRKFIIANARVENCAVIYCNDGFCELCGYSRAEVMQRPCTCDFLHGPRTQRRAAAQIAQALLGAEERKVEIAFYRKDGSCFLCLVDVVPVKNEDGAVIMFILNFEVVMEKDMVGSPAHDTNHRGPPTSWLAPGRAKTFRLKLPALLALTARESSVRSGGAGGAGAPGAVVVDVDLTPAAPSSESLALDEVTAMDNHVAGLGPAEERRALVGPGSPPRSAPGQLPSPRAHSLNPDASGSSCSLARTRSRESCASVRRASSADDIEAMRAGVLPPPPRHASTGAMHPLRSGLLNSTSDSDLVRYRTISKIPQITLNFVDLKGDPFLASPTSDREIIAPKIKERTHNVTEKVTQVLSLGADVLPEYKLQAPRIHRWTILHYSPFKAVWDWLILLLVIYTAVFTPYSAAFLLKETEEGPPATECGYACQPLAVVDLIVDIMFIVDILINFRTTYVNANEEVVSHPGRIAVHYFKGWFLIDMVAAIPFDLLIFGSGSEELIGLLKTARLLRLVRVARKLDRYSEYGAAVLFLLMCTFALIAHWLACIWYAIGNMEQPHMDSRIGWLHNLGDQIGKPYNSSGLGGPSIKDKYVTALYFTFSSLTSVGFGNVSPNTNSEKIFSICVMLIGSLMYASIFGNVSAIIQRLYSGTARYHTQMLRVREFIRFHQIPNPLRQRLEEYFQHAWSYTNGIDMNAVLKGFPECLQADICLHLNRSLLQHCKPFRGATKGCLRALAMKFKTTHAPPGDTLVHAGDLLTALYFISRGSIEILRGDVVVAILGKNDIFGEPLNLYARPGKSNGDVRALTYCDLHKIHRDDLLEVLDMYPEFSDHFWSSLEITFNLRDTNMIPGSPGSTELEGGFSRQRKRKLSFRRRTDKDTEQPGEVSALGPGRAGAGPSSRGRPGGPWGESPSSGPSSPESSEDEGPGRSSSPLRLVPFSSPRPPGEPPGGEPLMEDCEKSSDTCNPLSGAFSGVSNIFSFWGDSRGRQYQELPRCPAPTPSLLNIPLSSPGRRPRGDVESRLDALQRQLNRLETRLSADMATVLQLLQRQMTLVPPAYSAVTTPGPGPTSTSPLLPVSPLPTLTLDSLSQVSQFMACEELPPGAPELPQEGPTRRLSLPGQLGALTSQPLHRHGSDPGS

This test has as its target human ether-à-go-go-related gene (hERG) potassium channel (human, UniProt Q12809). As to the kind of experiment: primary screen, population patch clamp on CHO cells stably expressing hERG.
As for `CCCCCCSc1cc(C)nc2ncnn12`, the “hERG current change (%, negative = inhibition) at 1uM” value is -12.7%.
To `O=C(Nc1sc2c(c1C(=O)O)CCC2)c1ccco1` belongs 13.6%; to `O=C(c1cccc(Cl)c1)N1CCCC(C(=O)N2CCCCCC2)C1` (stereo not shown), -11.9%.
Turning to `COc1ccc(C2=NN(C(=O)CSc3nc(=O)n4ccc(C)cc4n3)C(c3ccc(C)cc3)C2)cc1` (stereo not shown), the “hERG current change (%, negative = inhibition) at 1uM” value stood at 15.2%.
`COc1ccc(NS(=O)(=O)c2cccc(C(=O)NCCc3ccc(S(N)(=O)=O)cc3)c2)cc1`: the “hERG current change (%, negative = inhibition) at 1uM” value was 12.9%.
Turning to `CCN(CC)S(=O)(=O)c1ccc(N2CCOCC2)c(NC(=O)CCC2CCCCC2)c1`, the “hERG current change (%, negative = inhibition) at 1uM” value turned out to be 8.56%.
To `CC[C@@]12C(=O)N(c3cccc(F)c3)C(=O)N1[C@H](c1ccc(Cl)cc1)[C@@H]1C(=O)N(C3CCCCC3)C(=O)[C@@H]12` belongs -1.77%.
As for `C/C(=N\NS(=O)(=O)c1ccc(C)cc1)c1cccs1`, the “hERG current change (%, negative = inhibition) at 1uM” value is recorded as 8.33%.
The result for `O=C(OC(C(=O)NCc1ccc2c(c1)OCO2)c1ccncc1)c1ccc(Cl)nc1` (stereo not shown) reads 1.17%.
The result for `COc1cc2c(cc1OC)CN(CC(=O)Nc1ccc(S(=O)(=O)N(C)C)cc1)CC2` reads 7.85%; that for `CSCCC(=O)N(C)CC1CCCN(CCc2cccc(C(F)(F)F)c2)C1` (stereo not shown), -55.1%; that for `COc1ccc(C2c3c(oc4ccccc4c3=O)C(=O)N2c2ccccn2)cc1OC` (stereo not shown), 4.42%.
The result for `Cc1cc(C)c2sc(N(CCN(C)C)C(=O)CCS(=O)(=O)c3ccccc3)nc2c1.Cl` reads 13.4%; that for `FC(F)(F)c1cnc2c(c1)[nH]c(=S)n2-c1ccc(Cl)cc1`, 18.8%; that for `COc1ccc(-c2noc(CCC(=O)Nc3ccc4c(c3)OCCO4)n2)cc1`, 6.02%.
Regarding `Cc1cc(OC(=O)c2ccc(Cl)cc2Cl)nc(C)n1`, the “hERG current change (%, negative = inhibition) at 1uM” value is recorded as 8.06%.
To `Cc1ccc(C(=O)CC(SCC(=O)O)c2ccc([N+](=O)[O-])cc2)cc1` (stereo not shown) belongs 8.62%.
The result for `NC(=O)c1c(NC(=O)Cc2cccs2)sc2c1CCC2` reads 8.15%; that for `C=CCSc1ccc(S(=O)(=O)N2CCN(C)CC2)cn1`, 1.06%; that for `Cc1cc2[nH]ncc2cc1NC(=S)NC(=O)c1ccccc1`, 6.37%.
The result for `CC(=O)c1c(O)cc2n(c1=O)-c1ccc(Cl)cc1C2(C)C` reads 2.96%; that for `CCOC(=O)/C(=C/C=C/c1ccccc1)NC(=O)c1ccccc1`, 9.69%; that for `S=C(c1c[nH]c2ccccc12)N1CCCC1`, 11.7%.
Regarding `O=C(NC1CCCCC1)C1CCN(S(=O)(=O)N2CCCCCC2)CC1`, the “hERG current change (%, negative = inhibition) at 1uM” value turned out to be 0.727%.
To `CCC(C(=O)NC1CCCCC1)n1c(SCc2cccc(F)c2)nc2ccncc21` (stereo not shown) belongs -0.406%; to `CCCc1cc(=O)oc2cc(C)cc(OCC(=O)NCCCn3ccnc3)c12`, -66.7%; to `Cc1ccc(OCc2ccc(C(=O)O)o2)c([N+](=O)[O-])c1`, 10.7%.
On to `O=C(CCC(=O)N1CCN(c2ccc(F)cc2)CC1)c1ccc(F)cc1`, for which the “hERG current change (%, negative = inhibition) at 1uM” value is listed as -46.8%.
To `CCn1ccnc1CNC(=O)CC1C(=O)NCCN1Cc1ccc(F)cc1Cl` (stereo not shown) belongs 13.5%; to `COc1ccccc1N1CCN(Cc2ccsc2)CC1`, -14.8%; to `NC(=O)NC(c1ccccc1)c1ccccc1F` (stereo not shown), 11.9%.
The result for `Br.CCCc1nnc2n1N=C(c1ccc([N+](=O)[O-])cc1)CS2` reads -7.11%; that for `Cc1ccc2c(c1)CCCN2C(=O)CSc1ccccc1`, 0.275%; that for `O=c1c2c([nH]c3ccccc13)CCCCCC2`, 3.17%.
To `COc1ccccc1-c1nnc(NC(=O)C(C)Sc2nncn2C)s1` (stereo not shown) belongs 8.37%; to `CCOC(=O)N1CCC2(CC1)CC(=O)c1c(ccc3oc(C(=O)O)c(C)c13)O2`, 9.47%.
With `C=CCC1(O)C(=O)Nc2ccccc21` (stereo not shown), the “hERG current change (%, negative = inhibition) at 1uM” value came to 5.27%.
Turning to `COC(=O)CC1Oc2ccccc2N(Cc2ccccc2)C1=O` (stereo not shown), the “hERG current change (%, negative = inhibition) at 1uM” value is reported as 1.42%.
Turning to `Cc1nc(C)c(-c2ccc(SCc3ccc([N+](=O)[O-])cc3)nn2)s1`, the “hERG current change (%, negative = inhibition) at 1uM” value is given as 1.05%.
To `CC(C)(C)c1cc(C(=O)CCN2CCOCC2)cc(C(C)(C)C)c1O` belongs 1.31%.
The result for `CC(=O)c1ccc(N2CCN(S(=O)(=O)c3ccc4c5c3CC(=O)N5CC(C)S4)CC2)cc1` (stereo not shown) reads 17.2%; that for `CCOCCn1c(CN2CCN(c3ccc(F)cc3)CC2)nc2c1c(=O)n(C)c(=O)n2C`, -34.2%.
To `CCOC(=O)c1ccc(N2C(=O)CC(Sc3ncccn3)C2=O)cc1` (stereo not shown) belongs 11.2%.
Consider `CCOc1ccc2[nH]cc(C(=O)NCCc3ccccc3)c(=O)c2c1`, for which the “hERG current change (%, negative = inhibition) at 1uM” value is recorded as 10.4%.
To `C/C(=N\Nc1ccccc1[N+](=O)[O-])c1ccc(N2CCOCC2)cc1` belongs 13.7%.
The result for `CCc1ccc(N2CC(C(=O)OCC(=O)Nc3ccc(C(C)=O)cc3)CC2=O)cc1` (stereo not shown) reads 0.637%; that for `O=C1c2cccnc2C(=O)N1c1cccc([N+](=O)[O-])c1`, 9.85%; that for `C/C=C\C=C/C(=O)Nc1cccc(C2=NOC3(C2)C[C@@H](C(N)=O)N(C(=O)c2ccc(Cl)cc2)C3)c1` (stereo partly shown), 12.2%.
The result for `Cc1ccc(NC(=O)CCCNC(=O)c2ccc(Cl)cc2)cc1S(=O)(=O)N1CCOCC1` reads -0.53%; that for `Cc1c2cnn(CC(=O)NCCCN3CCCCC3)c(=O)c2c(C)n1Cc1ccccc1`, 12.4%; that for `Cc1ccc(S(=O)(=O)Nc2ccc(NC(=O)c3cccs3)cc2)cc1`, 9.04%.
On to `Cc1cn(C)c(=O)n(C)c1=O`, for which the “hERG current change (%, negative = inhibition) at 1uM” value came to 1.21%.
`COC(=O)Cc1[nH]n(-c2ccccc2)c(=O)c1C(C)=Nc1ccccc1`: the “hERG current change (%, negative = inhibition) at 1uM” value stood at 6.7%.
The result for `CN1CCN(c2ccccc2NC(=O)c2ccc(-c3ccc(Cl)cc3Cl)o2)CC1` reads -4%; that for `CCOC(=O)c1c(-c2ccc(C)o2)csc1NC(=S)NC(=O)c1cccs1`, 18.3%; that for `CCOc1ccc(-c2noc(CCC(=O)NCCc3ccccc3)n2)cc1OC`, 13.6%.
`Cc1ccccc1NS(=O)(=O)c1cc2c(cc1C)NC(=O)CO2`: the “hERG current change (%, negative = inhibition) at 1uM” value is on record as -5.72%.
The result for `Cc1ccc(C(C)C)c(OCc2nc(-c3nonc3N)no2)c1` reads 9.33%.
The result for `O=C(NCCN1CCOCC1)c1cc(-c2ccc(Cl)s2)nc2ccccc12` reads 9.12%; that for `CCCC(c1nnnn1CCOC)N1CCN(Cc2ccccc2)CC1.Cl` (stereo not shown), 7.12%; that for `CN1C(N)=NC(=O)/C1=C/c1ccccc1F`, 6.33%.
The result for `O=C(COc1ccccc1Cl)NCCCNC(=O)c1ccncc1` reads 15.8%.
`COc1ccccc1C(=O)COC(=O)CCN=C1NS(=O)(=O)c2ccccc21`: the “hERG current change (%, negative = inhibition) at 1uM” value worked out at 0.619%.
For the compound `COCCNC(=O)/C(C#N)=C/c1c(N2CCN(c3ccc(OC)cc3)CC2)nc2c(C)cccn2c1=O`, the “hERG current change (%, negative = inhibition) at 1uM” value was determined as 11.5%.
To `COc1cc(CC(=O)N/N=C/c2ccc([N+](=O)[O-])cc2)c([N+](=O)[O-])cc1OC` belongs 14.5%.
To `O=C(O)c1ccc(Nc2ccc(Cl)c(Cl)c2)c([N+](=O)[O-])c1` belongs 14.3%.
The result for `CC(C)N1C(=O)CCN(C=O)c2ccccc21` reads 13.5%; that for `Cc1cc(C)c(C(=O)c2ccc(C(=O)NC(C)(C)C)cc2)c(C)c1`, 12.3%.
For `CC(C)CCNC(=O)c1nnc(Cc2ccc(Cl)cc2)o1`, the “hERG current change (%, negative = inhibition) at 1uM” value was 12%.
The result for `O=C(c1ccc(C(F)(F)F)cc1)N1CCC(=O)N(C(COCc2ccc(Cl)cc2)Cc2ccccc2)CC1` (stereo not shown) reads 6.71%; that for `Cc1ccc2[nH]c(=O)c(-c3nc4cc(C)ccn4c3NCc3ccco3)cc2c1`, 2.77%.
To `Cc1cccc(-n2ccc(=O)c(C(=O)O)n2)c1` belongs 15%; to `CC(=O)NCCn1c(SCC(=O)Nc2ccc(C)cc2)nc2ccccc2c1=O`, 3.26%.
The result for `COc1ccc(F)cc1S(=O)(=O)NCCN1CCOCC1` reads 15.2%; that for `CC(C)(C)NC(=O)C(c1ccncc1)N(C(=O)CNC(=O)c1ccco1)c1ccc(F)cc1` (stereo not shown), 8.26%; that for `CCCc1nc(SCC(=O)Nc2cc(C)on2)c2c(=O)n(C)c(=O)n(C)c2n1`, -1.4%.
In the case of `Cc1cc(C(=O)CSc2nnc(-c3cccs3)n2Cc2ccccc2)c(C)n1C`, the “hERG current change (%, negative = inhibition) at 1uM” value is listed as -7.66%.
The result for `Cn1cc(Cl)c(C(=O)NNC(=S)Nc2cccc(Cl)c2)n1` reads 8.53%.
To `Oc1cccc2ccc(N3CCOCC3)nc12` belongs 14.8%; to `COC(=O)c1cc(S(=O)(=O)N2CCN(c3cc(C)ccc3C)CC2)c[nH]1`, -2.62%; to `Cc1ccc2c(Cl)c(C(=O)NC3CC3)sc2c1`, 9.87%.
To `Cc1ccc(NC(=O)Nc2ccc3c(c2)CCC3)c(C)c1` belongs 11.1%; to `Oc1ccc(CN2CCc3ccccc3C2)c2cccnc12`, -6.29%; to `Cc1cc(C(=O)NCc2ccc(F)cc2)c2ccccc2n1`, 8.77%.
As to `CCOc1ccc(C(=O)N/N=C/c2cccc3cccnc23)cc1`, the “hERG current change (%, negative = inhibition) at 1uM” value is listed as 8.66%.
On to `Cc1ccc(S(=O)(=O)N2CCCC(C(=O)N3CCC4(CC3)OCCO4)C2)cc1` (stereo not shown), for which the “hERG current change (%, negative = inhibition) at 1uM” value was -2.24%.
To `CC1CCN(C(=O)CCC(=O)Nc2nnc(C3CCCCC3)s2)CC1` belongs 11.4%; to `C=C1CCC(C)C(C)(CCC2=CCOC2=O)C/C=C\C=C/1C(=O)O` (stereo not shown), 11.3%.
